These results are taken from PubChem BioAssay AID1240 (Sanford-Burnham Center for Chemical Genomics, 2008).

The structures appear in SMILES notation. Among all 50,000 compounds or so, about 800 (1.6%) showed an effect of 50% or more. The list shows a part of the results.

The target in this assay is Bcl-2-like protein 10 (Homo sapiens) (UniProt Q9HD36). Nature of the assay: TR3 peptide-Bcl-B binding displacers, biochemical primary FP assay, phenotype converters (AID 1240).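 Note: 0% = Bcl-B with tracer peptide and DMSO and 100% = tracer peptide lacking Bcl-B.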 The settings on record: GST-Bcl-B / FITC-TR3 peptide fluorescence polarization; stronger effect = higher value; compound at 3.75 mg/L.
Sequence of UniProt Q9HD36 (Q9HD36 whole entry, looked up): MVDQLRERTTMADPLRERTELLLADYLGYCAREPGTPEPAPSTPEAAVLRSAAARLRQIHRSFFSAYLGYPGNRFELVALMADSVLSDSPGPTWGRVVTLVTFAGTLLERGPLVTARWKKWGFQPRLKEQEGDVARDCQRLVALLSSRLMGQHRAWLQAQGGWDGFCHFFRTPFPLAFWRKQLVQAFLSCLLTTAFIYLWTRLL
As to `O=[N+]([O-])c1ccc(S(=O)(=O)N2CCSC2c2ccc3c4c(cccc24)CC3)cc1` (stereo not drawn), the displacement amounted to 12.8%.

For `C=CCCCC(=O)Nc1ccccc1Br`, the displacement came out at 11.7%.

As to `CC(=O)OCC12COC(C)(CC1C)CC2C` (stereo not drawn), the displacement came to 11.1%.

`O=[N+]([O-])c1ccc2c(c1)S(=O)(=O)NC2=NCc1ccccc1`: the displacement was found to be 12.6%.

Turning to `Cc1ccc([N+](=O)[O-])cc1NC(=O)CN1C(=O)c2ccccc2C1=O`, the displacement was -9.1%.

`O=C1OC(Nc2cccc3ccccc23)(c2ccccc2)c2ccccc21` (stereo not drawn): the displacement is 3.2%.

As to `Cc1cccnc1NC(=O)COc1ccc(Br)cc1`, the displacement was -0.3%.

For the molecule `O=C(c1cc(-c2ccc(Br)cc2)nc2ccccc12)N1CCCCC1`, the displacement was -12.9%.

Take `CC(=O)Nc1ccc(C(=O)Nc2ccc([N+](=O)[O-])cc2)cc1`: the displacement was determined as 4.7%.

In the case of `O=C(Nc1ncccn1)c1ccc([N+](=O)[O-])o1`, the displacement stood at 0.3%.

Turning to `COCCNC(=S)Nc1ccc(OC)cc1`, the displacement stood at 12.1%.

Take `CCOc1cc(/C=C2\SC(N)=NC2=O)cc(Cl)c1O`: the displacement is -91.3%.

`CCN(CC)c1ccc(NC(=O)c2cccs2)cc1`: the displacement was -0.9%.

As for `COc1ccccc1-c1cc(-c2ccc(Br)cc2)nc(=O)[nH]1`, the displacement is -9%.

For the molecule `COc1ccc(Br)cc1C(=O)Nc1ccc(F)c([N+](=O)[O-])c1`, the displacement is 13.4%.

Regarding `COc1ccccc1C(=O)Nc1cccc(C(C)=O)c1`, the displacement was -1%.

Consider `Cc1cc(NNC(=O)C(c2ccccc2)c2ccccc2)c2ccc(C)c(C)c2n1`, for which the displacement was -7.4%.

Turning to `CCC(Oc1ccccc1)C(=O)Nc1sc(C)c(C)c1C(=O)OC` (stereo not drawn), the displacement was -4.2%.

On to `COC(=O)CN(c1ccc(OC)cc1)S(C)(=O)=O`, for which the displacement worked out at 8%.

With `COC(=O)c1c(C)oc2ccc(OC(=O)c3ccc(Br)cc3)cc12`, the displacement amounted to 10.8%.

Take `COc1ccc(C2Nc3ccccc3C(=O)N2c2ccc(Br)cc2)cc1` (stereo not drawn): the displacement was 7.2%.

Consider `COc1cc(Cl)c(NC(=O)c2cc3ccccc3cc2O)c(OC)c1`, for which the displacement turned out to be 8.9%.

`Cc1onc(-c2ccccc2Cl)c1C(=O)NCCc1nc2ccccc2[nH]1`: the displacement is 2.6%.

Turning to `Cc1ccc(N=Cc2c(O)n(-c3ccccc3)c(=O)[nH]c2=O)cc1`, the displacement is -5.6%.

Regarding `CC1(C)CC(=O)C2=C(C1)NC1=C(C(=O)c3ccccc31)C2c1ccc(OC(=O)/C=C/c2ccc([N+](=O)[O-])cc2)cc1` (stereo not drawn), the displacement came to 15.9%.

Consider `C/C(=N\N=C1/NC(=O)C(CC(=O)O)S1)c1ccccc1` (stereo not drawn), for which the displacement was 0.5%.

On to `NC(=O)C1CCN(C(=O)COc2cccc3ccccc23)CC1`, for which the displacement was 0.4%.

For the molecule `O=C1c2ccc(-c3nc4ccccc4c(=O)o3)cc2C(=O)N1c1ccc([N+](=O)[O-])cc1`, the displacement is -6.6%.

For `CN1CN=C2SC3(COC(c4ccccc4Cl)OC3)C(=O)N2C1` (stereo not drawn), the displacement is -0.1%.

Regarding `CCOC(=O)c1cc(C)sc1NC(=O)c1sc2cc(F)ccc2c1Cl`, the displacement is -3.4%.

As for `COc1cc2nc(-c3cccc(Br)c3)oc(=O)c2cc1OC`, the displacement is 13.1%.

Regarding `COc1cccc(CN2CCN(Cc3cc(Br)ccc3O)CC2)c1OC`, the displacement was determined as 5.1%.

With `O=C(O)CCC(=O)NCC1(c2ccccc2)CCOCC1`, the displacement is -3.7%.

Consider `CN(c1ccccc1)c1ccc(/C=C2\N=C(c3ccccc3)OC2=O)cc1`, for which the displacement came to 3.3%.

Turning to `COc1ccc(CC(=O)Nc2cc(NC(=O)Cc3ccc(OC)cc3)cc(C(=O)NC(C)(C)C)c2)cc1`, the displacement worked out at 13.1%.

As to `FC(F)(F)c1ccccc1C=NN1CCN(c2ccc(Cl)cc2)CC1`, the displacement was -0.6%.

Regarding `COc1ccc(N(CC(=O)Nc2cccc(Br)c2)S(C)(=O)=O)cc1`, the displacement came to 8.6%.

With `N#Cc1c(-c2c3ccccc3cc3ccccc23)[nH]c(=S)[nH]c1=O`, the displacement is 5.2%.

For the molecule `CCC(C(=O)Nc1ccc(F)cc1F)c1ccccc1` (stereo not drawn), the displacement was determined as 35%.

As for `CC(=O)Nc1ccc(C(=O)N2CCN(c3ccccc3)CC2)cc1`, the displacement amounted to 11.9%.

For `O=C(c1ccc(N2CCN(C(=O)c3cccc(F)c3)CC2)cc1)c1cccc(F)c1`, the displacement is -2.7%.

Regarding `O=C(Nc1cccc2ccccc12)c1ccccc1[N+](=O)[O-]`, the displacement was -1.8%.

Consider `O=[N+]([O-])c1cc(C(F)(F)F)ccc1NCCCCNS(=O)(=O)c1ccccc1`, for which the displacement was found to be 17%.

On to `O=C(Nc1nc(-c2ccc(Br)cc2)cs1)c1ccc([N+](=O)[O-])cc1`, for which the displacement is 6.5%.

For the molecule `COC(=O)c1ccc(/C=C2/C(=O)NN(c3ccc(C)cc3)C2=O)cc1`, the displacement came out at 19%.

As for `Cc1ccc(NC(=O)CN(c2ccc(C)c(Cl)c2)S(C)(=O)=O)cc1C`, the displacement is 19.2%.

For `CCC(C(=O)N1CCN(Cc2ccccc2)CC1)c1ccccc1` (stereo not drawn), the displacement is -5.6%.

Consider `COc1ccc(CCN/C(C)=C/c2oc3ccc(O)cc3c2[N+](=O)[O-])cc1OC`, for which the displacement was -4.9%.

Turning to `COC(=O)C1=C(C)N(C)C(C)=C(C(=O)OC)C1c1ccc(Cl)c(Cl)c1`, the displacement was -0.4%.

`Cc1ccc(N2C(=O)CC(NCC3CCCO3)C2=O)cc1` (stereo not drawn): the displacement stood at 4.9%.

For `Cc1cc2c(cc1C)N(Cc1ccc(Cl)cc1)C1=NCCCN12`, the displacement was -2%.

Take `Nc1sc(=S)nc2sc3c(c12)CCN(Cc1ccccc1)C3`: the displacement was 74%.

With `O=C(COc1ccccc1[N+](=O)[O-])N/N=C/c1ccc(OC(=O)c2cccc(F)c2)cc1`, the displacement worked out at 4.5%.

Take `O=C(Nc1cccc(NC(=O)c2ccccc2[N+](=O)[O-])c1)c1ccco1`: the displacement was 11.9%.

Consider `CCC(=O)Nc1ccc(-c2nc3cc(Cl)ccc3o2)cc1`, for which the displacement was found to be 10.4%.

As to `Cc1ccc(NC2CC(C)N(C(=O)C(C)C)c3ccc(C)cc32)cc1` (stereo not drawn), the displacement is 4.2%.

With `COc1ccc(N=C(Sc2nc3ccccc3s2)c2ccc([N+](=O)[O-])cc2[N+](=O)[O-])cc1`, the displacement was 3.9%.

Consider `COc1ccc(CC(=O)N2CCN(c3ccc(F)cc3)CC2)cc1OC`, for which the displacement is -3.8%.

Turning to `CCOc1ccc(C(=O)Nc2ccc(Cl)cn2)cc1[N+](=O)[O-]`, the displacement came out at 14.4%.

In the case of `COc1ccc(C2CC(O)(C#Cc3ccccc3)C(C)C(c3ccc(OC)cc3)N2)cc1` (stereo not drawn), the displacement was -10%.

For `CC(=O)Nc1ccc(S(=O)(=O)NNc2ccccc2)cc1`, the displacement is -7.4%.

As for `Cc1onc(-c2ccccc2)c1C(=O)Nc1cccc(Oc2ccccc2)c1`, the displacement was -4.2%.

As for `COc1cc(C2CC(=O)Nc3c2ccc2ccccc32)cc(OC)c1OC(C)=O` (stereo not drawn), the displacement is -9.1%.

For `COc1ccccc1NC(=O)/C(=C\c1cccs1)NC(=O)c1ccccc1`, the displacement was 11.6%.

On to `CCOC(=O)C1=C(C)N=c2s/c(=C/c3cc(Br)cc(OC)c3O)c(=O)n2C1c1cccs1` (stereo not drawn), for which the displacement is 9.2%.

Turning to `Cc1ccc(CN2CCN(N=Cc3cccc([N+](=O)[O-])c3)CC2)c(C)c1`, the displacement was 9.2%.

As to `Cc1ccc(Nc2cc(N3CCCCC3)c(N)c3c2C(=O)c2ccccc2C3=O)cc1`, the displacement amounted to 6.3%.

For the molecule `COCCCNC(=O)CN(c1ccc(OC)cc1OC)S(C)(=O)=O`, the displacement was -7.9%.
